Hit rate of the full screen: of about 420,000 compounds, about 64,000 (15%) were called active. The inconclusive results got no clear call from the source; some entries with a clear call stand among them for comparison. Calls follow the shape of the dose curve; as a rule, active = well fitted inhibition curve with a large enough effect; inconclusive = small, poorly fitted or top-dose-only effect; inactive = flat fitted curve, though single readings scatter. Potencies of inconclusive entries are left out as doubtful fits.
Assay: qHTS for Inhibitors of human tyrosyl-DNA phosphodiesterase 1 (TDP1): qHTS in cells in absence of CPT; also: nearly all actives have a fitted effect of over 55% in size
Details: DT40 Tdp1-/- hTDP1 cells, no CPT, ATP luminescence, 48 h; activity change, negative = growth inhibition: at 46.2 µM (top of the series)
Method in brief: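 A cellular qHTS used chicken DT40 cells lacking endogenous Tdp1 but carrying stably transfected human TDP1. Compounds were applied without camptothecin, and cell growth kinetics were judged by ATP-dependent luminescence after ≥48 hr.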
For `COc1ccccc1-c1nc2ccccc2n(CC(C)C)c1=O`, the Potency was inconclusive [inhibitor, single point].
In the case of `COc1ccc(C)cc1NC(c1nnc(-c2ccccc2)o1)c1ccc(F)cc1Cl` (centres undefined), the Potency is reported as inconclusive [inhibitor, single point].
For `CCOC(=O)c1c(NC(=O)c2ccc(C)cc2)sc2c1CCCCC2`, the Potency was “inactive”.
With `C=CCOC(=O)C1=C(C)NC(SCC(=O)N(CC)CC)=C(C#N)C1c1ccccc1` (centres undefined) the Potency was active: 20.6 µM.
In the case of `COc1cccc(-c2nc(-c3ccccc3)c3ccc(Cl)cc3n2)c1`, the Potency is reported as “inactive”.
For `Cc1cc(C(=O)CN2CCCC2)c(C)n1-c1ccc(Cl)cc1`, the Potency was inconclusive [inhibitor, partial curve].
With `COc1ccc([C@H]2[C@H](C(C)=O)N3N=Cc4ccccc4C3C23C(=O)OC(C)(C)OC3=O)cc1` (some centres undefined) the Potency was inconclusive [inhibitor, partial curve].
For `COc1ccc(NC(=O)c2cc(-c3ccccc3)on2)cc1`, the Potency was “inactive”.
In the case of `O=C(CN1CCN(C(=O)c2ccco2)CC1)Nc1ccc(Cl)c(C(F)(F)F)c1`, the Potency is reported as active: 16.4 µM.
In the case of `O=C1CCN(Cc2ccccc2)C=C1c1ccc(C(F)(F)F)cc1`, the Potency is reported as inconclusive [inhibitor, single point].
With `CN(CC(=O)NC1CCCc2ccccc21)C1CCCCC1` (centres undefined) the Potency was inconclusive [inhibitor, single point].
For `COc1ccc(O)c(-c2cc(-c3ccc(F)cc3)n[nH]2)c1`, the Potency was inconclusive [inhibitor, single point].
For `Cc1ccc(NC(=O)COC(=O)[C@H](C)N2C(=O)C3CC=CCC3C2=O)cc1S(=O)(=O)N(C)C` (some centres undefined), the Potency was “inactive”.
In the case of `CCCOc1ccc(NC(=O)CC2C(=O)N(CC)C(=S)N2CCCN2CCN(Cc3ccccc3)CC2)cc1` (centres undefined), the Potency is reported as active: 14.6 µM.
With `CCOC(=O)c1nnn(-c2nonc2N)c1CNc1ccc(C)c(Br)c1` the Potency was inconclusive [inhibitor, single point].
For `COc1ccccc1N1CCN(C(=O)c2cc3c(=O)n4cccc(C)c4nc3s2)CC1`, the Potency was inconclusive [inhibitor, single point].
In the case of `CC1=C(C(N)=O)C(c2ccc3c(c2)OCO3)n2nc(-c3cccc(C)c3)nc2N1` (centres undefined), the Potency is reported as inconclusive [inhibitor, partial curve, poor fit].
In the case of `CCN(CC)S(=O)(=O)c1cccc(-c2nnc(SCCOc3ccc(Cl)cc3)o2)c1`, the Potency is reported as inconclusive [inhibitor, single point].
For `COc1ccc(CCN2C(=S)NC3CC2(C)Oc2ccc([N+](=O)[O-])cc23)cc1OC` (centres undefined), the Potency was active: 14.6 µM.
For `CCOC(=O)c1sc(NC(=O)CNCc2ccccn2)c(C(=O)OCC)c1C`, the Potency was active: 25.9 µM.
In the case of `CC(=O)c1ccc(OCc2cc(C(=O)N(C)C(C)c3nccs3)no2)cc1` (centres undefined), the Potency is reported as inconclusive [inhibitor, partial curve].
For `O=C(/C=C/c1cccs1)Nc1cccc(NC(=O)/C=C/c2cccs2)n1`, the Potency was active: 8.2 µM.
With `Cc1nc(SCC(=O)Nc2ccc3c(c2)OCO3)c(C#N)c2c1CCCC2` the Potency was active: 18.4 µM.
In the case of `C[C@@H]1CN([C@@H](C)CO)C(=O)CCCn2nncc2CO[C@H]1CN(C)S(=O)(=O)c1cccc(C#N)c1`, the Potency is reported as “inactive”.
With `CNc1nc(-c2ccc3c(c2)CCN3C(=O)c2ccccc2F)c(C)s1` the Potency was inconclusive [inhibitor, single point].
With `COc1ccccc1/C=C/CN1CCCC(CO)(Cc2cccc(Cl)c2)C1` (centres undefined) the Potency was active: 23.1 µM.
In the case of `Cc1ccc(C(=O)N2CCC3(CC2)Oc2ccc(Cl)cc2C(=O)C32CC(c3ccc(Cl)cc3)=NO2)s1` (centres undefined), the Potency is reported as “inactive”.
With `COc1ccc(C(=O)N2CCC(C(=O)N3CCN(Cc4ccccc4)CC3)CC2)cc1` the Potency was “inactive”.
With `COc1cc(C(=O)Nc2ccc(S(=O)(=O)Nc3ncccn3)cc2)c([N+](=O)[O-])cc1OC` the Potency was “inactive”.
In the case of `CN(c1ccc(C(=O)NCCSCc2c(F)cccc2Cl)cc1)S(C)(=O)=O`, the Potency is reported as inconclusive [inhibitor, single point].
For `O=C(NNC1=Nc2cc([N+](=O)[O-])ccc2OC1)c1ccccc1Cl`, the Potency was inconclusive [inhibitor, single point].
For `CC(=O)C[C@H](O)CC(=O)[C@H]1OC(=O)CCCCCCCCc2ccccc21`, the Potency was inconclusive [inhibitor, single point].
For `CCc1cccc(CC)c1NC(=S)NCCc1c(C)[nH]c2ccccc12`, the Potency was inconclusive [inhibitor, single point].
In the case of `CCOC(=O)C1CCCN(CC(=O)c2c[nH]c3ccc(C)cc23)C1` (centres undefined), the Potency is reported as inconclusive [inhibitor, single point].
For `O=Cc1ccsc1B(O)O`, the Potency was “inactive”.
With `CN1/C(=C\C(=O)Nc2ccc(F)cc2)C(C)(C)c2ccccc21` the Potency was inconclusive [inhibitor, single point].
In the case of `COC(=O)c1ccccc1S(=O)(=O)N1CCC(C(=O)Nc2ccc(N3CCOCC3)cc2)CC1`, the Potency is reported as “inactive”.
In the case of `O=C(N/C(=C\c1ccc([N+](=O)[O-])cc1)C(=O)N1CCOCC1)c1cccc(Br)c1`, the Potency is reported as inconclusive [inhibitor, single point].
With `O=C(Nc1ccc2oc(-c3ccccc3F)nc2c1)c1ccccc1F` the Potency was inconclusive [inhibitor, single point].
With `CCC(=O)Nc1nc2ccc([N+](=O)[O-])cc2s1` the Potency was inconclusive [inhibitor, single point].
For `Cc1c(C(=O)/C=C/N(C)C)nnn1-c1ccc(Cl)cc1Cl`, the Potency was inconclusive [inhibitor, partial curve, poor fit].
In the case of `Cc1ccc(S(=O)(=O)Nc2cncnc2NS(=O)(=O)c2ccc(C)cc2)cc1`, the activity change, negative = growth inhibition is reported as inconclusive: -32.9% [inhibitor].
For `COc1ccc(OCCNc2c([N+](=O)[O-])c(=O)oc3ccccc23)cc1`, the Potency was inconclusive [inhibitor, single point].
In the case of `COc1ccc2c(c1OC)C(=O)OC2Nc1nc2ccccc2s1` (centres undefined), the Potency is reported as “inactive”.
For `CCOC(=O)c1cc(-c2ccc(OC)cc2)n(CCC(=O)NCCN2CCC(C)CC2)c1C`, the Potency was inconclusive [inhibitor, single point].
For `CCOc1ccc(NC(=O)Nc2ccon2)cc1`, the Potency was inconclusive [inhibitor, partial curve].
For `COc1ccc(-c2cc3nc(NCCCN(C)C)n(C)c(=O)c3s2)cc1OC`, the Potency was inconclusive [inhibitor, single point].
In the case of `O=C(Nc1ccc(S(=O)(=O)NC2=NCCCCC2)cc1)c1cccs1`, the Potency is reported as inconclusive [inhibitor, single point].
With `CCn1cc(S(=O)(=O)N2CCN(Cc3cccc(Cl)c3)CC2)cn1` the Potency was “inactive”.
With `CC(C)(C)NC(=O)CSc1nc2ccc(Nc3nc(N4CCOCC4)nc(N4CCOCC4)n3)cc2s1` the Potency was active: 6.51 µM.
In the case of `Cc1ccc(S(=O)(=O)N2CCC(C(=O)NC3CC(C)(C)NC(C)(C)C3)CC2)cc1C`, the Potency is reported as “inactive”.
For `COc1ccc2[nH]c3c(c2c1)CCN1C(=O)C(CC(=O)NC/C=C(\C)CCC=C(C)C)C[C@H](C(=O)N(C(C)C)C(C)C)[C@@]31C` (some centres undefined), the Potency was active: 18.4 µM.
For `CCOc1cc(C(=O)Nc2cccnc2)cc(OCC)c1OCC`, the Potency was inconclusive [inhibitor, single point].
With `[O-]C(=C(C(=S)Nc1cccc2ccccc12)[n+]1ccccc1)c1ccc2c(c1)OCCO2` the Potency was inconclusive [inhibitor, single point].
With `COC(=O)C1=C(C)OC(N)=C(C#N)C1c1cccnc1` (centres undefined) the Potency was inconclusive [inhibitor, single point].
In the case of `Nc1ccccc1-c1nc2ccncc2[nH]1`, the Potency is reported as “inactive”.
In the case of `O=C(CCC(=O)c1ccccc1)NCCc1c[nH]c2ccccc12`, the Potency is reported as “inactive”.
In the case of `N#Cc1c(NC(=O)c2cc(C3CC3)on2)sc2c1CCC2`, the Potency is reported as active: 11.6 µM.
In the case of `COc1ccccc1N(CC(=O)NCc1ccco1)C(=O)CCC(=O)Nc1ccccn1`, the Potency is reported as “inactive”.
For `Cc1ccc(-c2cc3c(nn2)-c2ccccc2C3=O)cc1`, the Potency was active: 23.1 µM.
In the case of `NC(=S)n1[nH]c(-c2ccc([N+](=O)[O-])cc2)c(N=Nc2ccccc2[N+](=O)[O-])c1=O`, the Potency is reported as inconclusive [inhibitor, partial curve].
For `O=C(C1CCCO1)N(c1ccc(F)cc1)C1C=CS(=O)(=O)C1` (centres undefined), the Potency was “inactive”.
For `Cc1ccc(NC(=O)CNc2ccccc2CN(C)C2CCCCC2)cc1`, the Potency was inconclusive [inhibitor, single point].
With `CCOc1ccc2nc(Cl)c(C3CC(c4ccco4)=NN3S(=O)(=O)c3ccccc3)cc2c1` (centres undefined) the activity change, negative = growth inhibition was inconclusive: -33.8% [inhibitor].
In the case of `Cc1cc(S(=O)(=O)N2CCN(Cc3ccccc3)CC2)c(C)s1`, the Potency is reported as inconclusive [inhibitor, single point].
In the case of `O=C1CC(N(O)c2ccccc2)C(=O)N1c1ccc(Cl)c(Cl)c1` (centres undefined), the Potency is reported as inconclusive [inhibitor, partial curve, poor fit].
For `O=c1[nH]c(N2CCc3ccccc32)nc2c1CCCC2`, the Potency was inconclusive [inhibitor, single point].
In the case of `CC(=O)Nc1ccc(N2C(=O)c3ccc(C(=O)Nc4nnc(SCc5ccc(F)cc5)s4)cc3C2=O)cc1`, the Potency is reported as inconclusive [inhibitor, single point].
With `Cc1ccc(-n2cnc3cc(C(=O)NCCC4=CCCCC4)ccc32)c(C)c1` the Potency was inconclusive [inhibitor, single point].
% is scaled to controls: 0 for no effect and ±100 for the full control effect; potency is read from the fitted curve at half-maximal effect; tags tell the direction and shape of the fitted curve.
